In patent US20140154256A1 (published 2014):

B1: DVD1218SL (anti-IL12/IL18 DVD-Ig, 12-18-C, short linker) (bispecific antibody, human IgG1, kappa)
heavy: QVQLVESGGGVVQPGRSLRLSCAASGFTFSSYGMHWVRQAPGKGLEWVAFIRYDGSNKYYADSVKGRFTISRDNSKNTLYLQMNSLRAEDTAVYYCKTHGSHDNWGQGTMVTVSSASTKGPEVQLVQSGTEVKKPGESLKISCKGSGYTVTSYWIGWVRQMPGKGLEWMGFIYPGDSETRYSPTFQGQVTISADKSFNTAFLQWSSLKASDTAMYYCARVGSGWYPYTFDIWGQGTMVTVSS[letters of human IgG1 constant region left out]
light: QSVLTQPPSVSGAPGQRVTISCSGSRSNIGSNTVKWYQQLPGTAPKLLIYYNDQRPSGVPDRFSGSKSGTSASLAITGLQAEDEADYYCQSYDRYTHPALLFGTGTKVTVLGQPKAAPEIVMTQSPATLSVSPGERATLSCRASESISSNLAWYQQKPGQAPRLFIYTASTRATDIPARFSGSGSGTEFTLTISSLQSEDFAVYYCQQYNNWPSITFGQGTRLEIKRTVAAPSVFIFPPSDEQLKSGTASVVCLLNNFYPREAKVQWKVDNALQSGNSQESVTEQDSKDSTYSLSSTLTLSKADYEKHKVYACEVTHQGLSSPVTKSFNRGEC
notes: also called DVD1218HC-SL / DVD1218LC-SL
B2: DVD1218LL (anti-IL12/IL18 DVD-Ig, 12-18-C, long linker) (bispecific antibody, human IgG1, kappa, lambda)
heavy: QVQLVESGGGVVQPGRSLRLSCAASGFTFSSYGMHWVRQAPGKGLEWVAFIRYDGSNKYYADSVKGRFTISRDNSKNTLYLQMNSLRAEDTAVYYCKTHGSHDNWGQGTMVTVSSASTKGPSVFPLAPEVQLVQSGTEVKKPGESLKISCKGSGYTVTSYWIGWVRQMPGKGLEWMGFIYPGDSETRYSPTFQGQVTISADKSFNTAFLQWSSLKASDTAMYYCARVGSGWYPYTFDIWGQGTMVTVSS[letters of human IgG1 constant region left out]
light: QSVLTQPPSVSGAPGQRVTISCSGSRSNIGSNTVKWYQQLPGTAPKLLIYYNDQRPSGVPDRFSGSKSGTSASLAITGLQAEDEADYYCQSYDRYTHPALLFGTGTKVTVLGQPKAAPSVTLFPPEIVMTQSPATLSVSPGERATLSCRASESISSNLAWYQQKPGQAPRLFIYTASTRATDIPARFSGSGSGTEFTLTISSLQSEDFAVYYCQQYNNWPSITFGQGTRLEIKRTVAAPSVFIFPPSDEQLKSGTASVVCLLNNFYPREAKVQWKVDNALQSGNSQESVTEQDSKDSTYSLSSTLTLSKADYEKHKVYACEVTHQGLSSPVTKSFNRGEC
notes: also called DVD1218HC-LL / DVD1218LC-LL
B3: 1D4.1-ABT325 DVD-Ig (bispecific antibody, human IgG1, kappa)
heavy: EVTLRESGPALVKPTQTLTLTCTFSGFSLSKSVMGVSWIRQPPGKALEWLAHIYWDDDKYYNPSLKSRLTISKDTSKNQVVLTMTNMDPVDTATYYCARRGIRSAMDYWGQGTTVTVSSASTKGPEVQLVQSGTEVKKPGESLKISCKGSGYTVTSYWIGWVRQMPGKGLEWMGFIYPGDSETRYSPTFQGQVTISADKSFNTAFLQWSSLKASDTAMYYCARVGSGWYPYTFDIWGQGTMVTVSS[letters of human IgG1 constant region left out]
light: DIVMTQSPDSLAVSLGERATINCKASQSVSNDVAWYQQKPGQPPKLLIYYASNRYTGVPDRFSGSGSGTDFTLTISSLQAEDVAVYYCQQDYNSPWTFGGGTKVEIKRTVAAPEIVMTQSPATLSVSPGERATLSCRASESISSNLAWYQQKPGQAPRLFIYTASTRATDIPARFSGSGSGTEFTLTISSLQSEDFAVYYCQQYNNWPSITFGQGTRLEIKRTVAAPSVFIFPPSDEQLKSGTASVVCLLNNFYPREAKVQWKVDNALQSGNSQESVTEQDSKDSTYSLSSTLTLSKADYEKHKVYACEVTHQGLSSPVTKSFNRGEC
notes: Short linkers ASTKGP / TVAAP

Legend:
human IL-12 [1] = molecular target: T1, human IL-12 (human, UniProt P29459 23-219; P29460 23-328); assay: cell-based or functional assay
T1 sequence (looked up) 1: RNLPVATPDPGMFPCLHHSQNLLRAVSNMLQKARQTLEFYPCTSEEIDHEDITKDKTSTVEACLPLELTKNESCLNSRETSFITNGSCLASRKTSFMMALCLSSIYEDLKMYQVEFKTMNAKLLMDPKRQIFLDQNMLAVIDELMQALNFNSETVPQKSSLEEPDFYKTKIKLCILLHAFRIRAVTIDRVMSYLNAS
T1 sequence (looked up) 2: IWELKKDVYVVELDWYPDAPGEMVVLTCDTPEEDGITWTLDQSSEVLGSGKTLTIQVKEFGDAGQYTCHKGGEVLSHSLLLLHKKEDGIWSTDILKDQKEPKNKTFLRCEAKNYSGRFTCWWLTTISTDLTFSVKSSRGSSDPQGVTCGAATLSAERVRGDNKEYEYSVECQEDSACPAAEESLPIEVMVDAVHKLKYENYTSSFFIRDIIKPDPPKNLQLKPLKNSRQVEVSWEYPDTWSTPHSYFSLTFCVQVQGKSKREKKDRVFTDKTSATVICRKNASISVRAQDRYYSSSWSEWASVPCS

human IL-18 [2] = molecular target: T2, human IL-18 (human, UniProt Q14116 37-193); assay: cell-based or functional assay
human IL-18 [3] = molecular target: T2, human IL-18; assay: SPR (Biacore)
human IL-12 [4] = molecular target: T1, human IL-12; assay: SPR (Biacore)
human IL-18 [5] = molecular target: T2, human IL-18; assay: SPR (Biacore); remark: listed apart in the source
human IL-12 [6] = molecular target: T1, human IL-12; assay: cell-based or functional assay; remark: listed apart in the source
human IL-18 [7] = molecular target: T2, human IL-18; assay: cell-based or functional assay; remark: listed apart in the source
human IL-12 [8] = molecular target: T1, human IL-12; assay: cell-based or functional assay; remark: listed apart in the source
human IL-18 [9] = molecular target: T2, human IL-18; assay: cell-based or functional assay; remark: listed apart in the source
human IL-12 [10] = molecular target: T1, human IL-12; assay: SPR (Biacore); remark: listed apart in the source
human IL-18 [11] = molecular target: T2, human IL-18; assay: SPR (Biacore); remark: listed apart in the source

Row | Binder | Potency (IC50), PHA-Blast Assay (human IL-12 [1]) [nM] | Potency (IC50), KG-1 Assay (human IL-18 [2]) [nM] | Kd (human IL-18 [3]) [nM] | Kd (human IL-12 [4]) [nM] | Kd (human IL-18 [5]) [nM] | Potency (IC50, M), IL-12-induced IFN-γ production by PHA blast cells (human IL-12 [6]) [M] | Potency (IC50, M), KG-1 bioassay (IFN-γ production) (human IL-18 [7]) [M] | Potency (IC50, M), PBMC assay (IL-12) (human IL-12 [8]) [M] | Potency (IC50, M), KG-1 bioassay (IL-18) (human IL-18 [9]) [M] | Kd (human IL-12 [10]) [nM] | Kd (human IL-18 [11]) [nM]
1 | B1 | 0.007 | 0.18 | 0.622 | 0.0381 | 0.622 | 6.93e-12 | 1.8e-10 | – | – | – | –
2 | B2 | – | – | – | 0.0238 | 0.664 | 3.04e-12 | 1.8e-10 | – | – | – | –
3 | B3 | – | – | – | – | – | – | – | 2.17e-10 | 1.2e-10 | 0.133 | 0.159

Read-outs that look alike come from different tables or passages of the source.
